Results taken from the supplement of paper PMC8728848.
The list shows a part of the results.

Assays:
Test in all cases: glycan array binding signal (z-score within array); higher = stronger binding
Conditions in all cases: glycan notation: IUPAC condensed, linker removed
Fuc(a1-2)Gal6S(b1-4)Glc = biological target: Fuc(a1-2)Gal6S(b1-4)Glc
In short: (§1)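 Negative Z-scores can be read as non-binding. The Z-score is calculated within each array and then averaged across arrays of one protein sequence at different concentrations or buffers and across linkers. Arrays, 3228 in all, were curated from the Consortium for Functional Glycomics database and kept only where the protein sequence was available.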

[1] = biological target: Fuc(a1-2)Gal6S(b1-4)Glc6S
In short: as §1

[2] = biological target: Fuc(a1-2)Gal6S(b1-4)GlcNAc
In short: as §1

Fuc(a1-2)[Gal(a1-3)]Gal = biological target: Fuc(a1-2)[Gal(a1-3)]Gal
In short: as §1

[3] = biological target: Fuc(a1-2)[Gal(a1-3)]Gal(b1-3)GalNAc
In short: as §1

[4] = biological target: Fuc(a1-2)[Gal(a1-3)]Gal(b1-3)GlcNAc
In short: as §1

[5] = biological target: Fuc(a1-2)[Gal(a1-3)]Gal(b1-3)GlcNAc(b1-2)Man(a1-3)[Fuc(a1-2)[Gal(a1-3)]Gal(b1-3)GlcNAc(b1-2)Man(a1-6)]Man(b1-4)GlcNAc(b1-4)GlcNAc
In short: as §1

[6] = biological target: Fuc(a1-2)[Gal(a1-3)]Gal(b1-3)GlcNAc(b1-2)Man(a1-3)[Fuc(a1-2)[Gal(a1-3)]Gal(b1-3)GlcNAc(b1-2)Man(a1-6)]Man(b1-4)GlcNAc(b1-4)[Fuc(a1-6)]GlcNAc
In short: as §1

[7] = biological target: Fuc(a1-2)[Gal(a1-3)]Gal(b1-3)GlcNAc(b1-3)GalNAc
In short: as §1

[8] = biological target: Fuc(a1-2)[Gal(a1-3)]Gal(b1-4)Glc
In short: as §1

[9] = biological target: Fuc(a1-2)[Gal(a1-3)]Gal(b1-4)GlcNAc
In short: as §1

[10] = biological target: Fuc(a1-2)[Gal(a1-3)]Gal(b1-4)GlcNAc(b1-2)Man(a1-3)[Fuc(a1-2)[Gal(a1-3)]Gal(b1-4)GlcNAc(b1-2)Man(a1-6)]Man(b1-4)GlcNAc(b1-4)GlcNAc
In short: as §1

[11] = biological target: Fuc(a1-2)[Gal(a1-3)]Gal(b1-4)GlcNAc(b1-2)Man(a1-3)[Fuc(a1-2)[Gal(a1-3)]Gal(b1-4)GlcNAc(b1-2)Man(a1-6)]Man(b1-4)GlcNAc(b1-4)[Fuc(a1-6)]GlcNAc
In short: as §1

[12] = biological target: Fuc(a1-2)[Gal(a1-3)]Gal(b1-4)GlcNAc(b1-3)GalNAc
In short: as §1

[13] = biological target: Fuc(a1-2)[Gal(a1-3)]Gal(b1-4)GlcNAc(b1-6)GalNAc
In short: as §1

[14] = biological target: Fuc(a1-2)[Gal(a1-3)]Gal(b1-4)[Fuc(a1-3)]Glc
In short: as §1

[15] = biological target: Fuc(a1-2)[Gal(a1-3)]Gal(b1-4)[Fuc(a1-3)]GlcNAc
In short: as §1

[16] = biological target: Fuc(a1-2)[Gal(a1-3)]Gal(b1-4)[Fuc(a1-3)]GlcNAc(b1-3)GalNAc
In short: as §1

[17] = biological target: Fuc(a1-2)[Gal(a1-4)]Gal(b1-4)GlcNAc
In short: as §1

[18] = biological target: Fuc(a1-2)[GalNAc(a1-3)]Gal
In short: as §1

[19] = biological target: Fuc(a1-2)[GalNAc(a1-3)]Gal(b1-3)GalNAc(a1-3)[Fuc(a1-2)]Gal(b1-4)GlcNAc
In short: as §1

[20] = biological target: Fuc(a1-2)[GalNAc(a1-3)]Gal(b1-3)GlcNAc
In short: as §1

[21] = biological target: Fuc(a1-2)[GalNAc(a1-3)]Gal(b1-3)GlcNAc(b1-2)Man(a1-3)[Fuc(a1-2)[GalNAc(a1-3)]Gal(b1-3)GlcNAc(b1-2)Man(a1-6)]Man(b1-4)GlcNAc(b1-4)GlcNAc
In short: as §1

[22] = biological target: Fuc(a1-2)[GalNAc(a1-3)]Gal(b1-3)GlcNAc(b1-2)Man(a1-3)[Fuc(a1-2)[GalNAc(a1-3)]Gal(b1-3)GlcNAc(b1-2)Man(a1-6)]Man(b1-4)GlcNAc(b1-4)[Fuc(a1-6)]GlcNAc
In short: as §1

[23] = biological target: Fuc(a1-2)[GalNAc(a1-3)]Gal(b1-3)GlcNAc(b1-3)GalNAc
In short: as §1

[24] = biological target: Fuc(a1-2)[GalNAc(a1-3)]Gal(b1-3)GlcNAc(b1-6)GalNAc
In short: as §1

[25] = biological target: Fuc(a1-2)[GalNAc(a1-3)]Gal(b1-4)Glc
In short: as §1

[26] = biological target: Fuc(a1-2)[GalNAc(a1-3)]Gal(b1-4)GlcNAc
In short: as §1

[27] = biological target: Fuc(a1-2)[GalNAc(a1-3)]Gal(b1-4)GlcNAc(b1-2)Man(a1-3)[Fuc(a1-2)[GalNAc(a1-3)]Gal(b1-4)GlcNAc(b1-2)Man(a1-6)]Man(b1-4)GlcNAc(b1-4)GlcNAc
In short: as §1

[28] = biological target: Fuc(a1-2)[GalNAc(a1-3)]Gal(b1-4)GlcNAc(b1-2)Man(a1-3)[Fuc(a1-2)[GalNAc(a1-3)]Gal(b1-4)GlcNAc(b1-2)Man(a1-6)]Man(b1-4)GlcNAc(b1-4)[Fuc(a1-6)]GlcNAc
In short: as §1

[29] = biological target: Fuc(a1-2)[GalNAc(a1-3)]Gal(b1-4)GlcNAc(b1-3)Gal(b1-4)GlcNAc
In short: as §1

[30] = biological target: Fuc(a1-2)[GalNAc(a1-3)]Gal(b1-4)GlcNAc(b1-3)Gal(b1-4)GlcNAc(b1-3)Gal(b1-4)GlcNAc
In short: as §1

[31] = biological target: Fuc(a1-2)[GalNAc(a1-3)]Gal(b1-4)GlcNAc(b1-3)GalNAc
In short: as §1

[32] = biological target: Fuc(a1-2)[GalNAc(a1-3)]Gal(b1-4)[Fuc(a1-3)]GlcNAc
In short: as §1

[33] = biological target: Fuc(a1-2)[GalNAc(a1-3)]Gal(b1-4)[Fuc(a1-3)]GlcNAc(b1-3)GalNAc
In short: as §1

[34] = biological target: Fuc(a1-2)[GalNAc(a1-4)]Gal(b1-4)GlcNAc
In short: as §1

[35] = biological target: Fuc(a1-2)[GalNAc(b1-3)]Gal
In short: as §1

Fuc(a1-3)GlcNAc = biological target: Fuc(a1-3)GlcNAc
In short: as §1

[36] = biological target: Fuc(a1-3)[Gal(b1-4)]Glc6S
In short: as §1

[37] = biological target: Fuc(a1-3)[Gal(b1-4)]GlcNAc
In short: as §1

[38] = biological target: Fuc(a1-3)[Gal(b1-4)]GlcNAc(b1-2)Man
In short: as §1

[39] = biological target: Fuc(a1-3)[Gal(b1-4)]GlcNAc(b1-2)Man(a1-3)[Fuc(a1-3)[Gal(b1-4)]GlcNAc(b1-2)Man(a1-6)]Man(b1-4)GlcNAc(b1-4)GlcNAc
In short: as §1

[40] = biological target: Fuc(a1-3)[Gal(b1-4)]GlcNAc(b1-2)Man(a1-3)[Fuc(a1-3)[Gal(b1-4)]GlcNAc(b1-2)Man(a1-6)]Man(b1-4)GlcNAc(b1-4)[Fuc(a1-6)]GlcNAc
In short: as §1

[41] = biological target: Fuc(a1-3)[Gal(b1-4)]GlcNAc(b1-3)Gal(b1-3)[Fuc(a1-4)]GlcNAc
In short: as §1

[42] = biological target: Fuc(a1-3)[Gal(b1-4)]GlcNAc(b1-3)GalNAc
In short: as §1

B1: SpnanA (Streptococcus pneumoniae), P62575 (protein)
chain: MVIEKEDVETNASNGQRVDLSSELDKLKKLENATVHMEFKPDAKAPAFYNLFSVSSATKKDEYFTMAVYNNTATLEGRGSDGKQFYNNYNDAPLKVKPGQWNSVTFTVEKPTAELPKGRVRLYVNGVLSRTSLRSGNFIKDMPDVTHVQIGATKRANNTVWGSNLQIRNLTVYNRALTPEEVQKRS
- glycan array binding signal (z-score) (Fuc(a1-2)Gal6S(b1-4)Glc): -0.212
- glycan array binding signal (z-score) [1]: -0.121
- glycan array binding signal (z-score) [2]: -0.317
- glycan array binding signal (z-score) (Fuc(a1-2)[Gal(a1-3)]Gal): -0.222
- glycan array binding signal (z-score) [3]: -0.322
- glycan array binding signal (z-score) [4]: -0.262
- glycan array binding signal (z-score) [5]: -0.216
- glycan array binding signal (z-score) [6]: -0.328
- glycan array binding signal (z-score) [7]: -0.21
- glycan array binding signal (z-score) [8]: -0.273
- glycan array binding signal (z-score) [9]: -0.187
- glycan array binding signal (z-score) [10]: -0.198
- glycan array binding signal (z-score) [11]: -0.314
- glycan array binding signal (z-score) [12]: -0.355
- glycan array binding signal (z-score) [13]: -0.044
- glycan array binding signal (z-score) [14]: -0.264
- glycan array binding signal (z-score) [15]: -0.275
- glycan array binding signal (z-score) [16]: -0.047
- glycan array binding signal (z-score) [17]: -0.249
- glycan array binding signal (z-score) [18]: -0.21
- glycan array binding signal (z-score) [19]: -0.12
- glycan array binding signal (z-score) [20]: -0.265
- glycan array binding signal (z-score) [21]: -0.292
- glycan array binding signal (z-score) [22]: -0.289
- glycan array binding signal (z-score) [23]: -0.044
- glycan array binding signal (z-score) [24]: -0.265
- glycan array binding signal (z-score) [25]: -0.263
- glycan array binding signal (z-score) [26]: -0.134
- glycan array binding signal (z-score) [27]: -0.211
- glycan array binding signal (z-score) [28]: -0.31
- glycan array binding signal (z-score) [29]: -0.247
- glycan array binding signal (z-score) [30]: -0.165
- glycan array binding signal (z-score) [31]: -0.259
- glycan array binding signal (z-score) [32]: 0.018
- glycan array binding signal (z-score) [33]: 0.218
- glycan array binding signal (z-score) [34]: -0.162
- glycan array binding signal (z-score) [35]: -0.274
- glycan array binding signal (z-score) (Fuc(a1-3)GlcNAc): -0.176
- glycan array binding signal (z-score) [36]: -0.264
- glycan array binding signal (z-score) [37]: -0.28
- glycan array binding signal (z-score) [38]: -0.244
- glycan array binding signal (z-score) [39]: -0.169
- glycan array binding signal (z-score) [40]: -0.083
- glycan array binding signal (z-score) [41]: -0.263
- glycan array binding signal (z-score) [42]: -0.153
